Drawing on PubChem BioAssay AID463173 (ICCB-Longwood Screening Facility, Harvard Medical School, 2010), this text covers survival for 89 molecules.

Out of some 52,000 compounds screened, about 4,300 (8.3%) were called active. Cut-off read from the data, not from the text of the source: active = survival mostly below about 52% (no sharp cut-off); inactive = mostly above about 56%. The list shows a part of the results.

In this assay the test system is DeltatarO mutant. Description: S. aureus survival, RN4220 and DeltatarO strains – OD600, teichoic acid synthesis inhibitors, primary screen (AID 463173). The note with it: S. aureus RN4220 wild type/DeltatarO growth, OD600, 18 h, active compounds read low, screened at 18.75 µg/mL (by protocol).
With `Oc1c(C(c2ccc(Br)cc2)N2CCOCC2)sc2nc(-c3ccco3)nn12` (centres undefined), the survival was inactive: 58%.

As for `COc1ccc(CCNC(=O)CCn2c(=O)c3ccccc3n(Cc3c(C)cc(C)cc3C)c2=O)cc1OC`, the survival is inactive: 89%.

For `COc1ccc2nc3sc(C(=O)N4CCN(c5ccccc5)CC4)cc3cc2c1`, the survival is inactive: 109%.

Turning to `CCN(CCCNC(=O)CSc1cc(=O)n(C)c2cc(Cl)ccc12)c1cccc(C)c1`, the survival was inactive: 90%.

`Cc1c2cnn(-c3ccccc3)c(=O)c2c(C)n1CC(=O)N1CCN(c2ccc(F)cc2)CC1`: the survival is inactive: 87%.

For `COc1cc(-c2noc(-c3ccc(N4CCOCC4)c([N+](=O)[O-])c3)n2)cc(OC)c1OC`, the survival is inactive: 66%.

`Cc1ccc(NC(=O)CSc2nc3ccccc3c3nc(CCn4cncc4C)nn23)c(C)c1`: the survival is inactive: 75%.

In the case of `COc1cccc(-c2nc(CS(=O)(=O)CC(=O)Nc3cc(F)ccc3F)c(C)o2)c1`, the survival was inactive: 60%.

Consider `O=C(NCCN1CCOCC1)Nc1c[nH]c2ccccc2c1=O`, for which the survival is inactive: 102%.

For the molecule `Cc1ccc(OCC(=O)N(Cc2ccco2)Cc2ccco2)cc1`, the survival was inactive: 50%.

As to `COc1ccc(-c2nnc(SCC(=O)NCc3ccccc3)nc2-c2ccc(OC)c(OC)c2)cc1OC`, the survival is inactive: 73%.

For the molecule `Cc1ccc(CN(Cc2ccco2)C(=O)COc2ccc(Cl)cc2Cl)cc1`, the survival was inactive: 96%.

`O=C(O)CN1C(=O)S/C(=C\c2ccccc2)C1=O`: the survival is inactive: 83%.

With `O=C(CN(C(=O)Cn1nnc(-c2cccs2)n1)c1ccc2c(c1)OCCO2)NCC1CCCO1` (centres undefined), the survival is inactive: 99%.

For the molecule `CCOc1ccc(NC(=O)Cc2ccc(NC(=O)N3CCCCc4ccccc43)cc2)cc1`, the survival was inactive: 73%.

`CC(C)(C)c1ccc(S(=O)(=O)c2cnc(SCC(=O)Nc3ccc(F)c(Cl)c3)[nH]c2=O)cc1`: the survival was inactive: 85%.

For `O=C1CCCCC(=O)c2ccccc2N1`, the survival was inactive: 97%.

Consider `CCOC(=O)c1cc(-c2ccc(F)cc2)n(CC(=O)NCc2ccc(OC)cc2)c1C`, for which the survival was inactive: 75%.

On to `COC(=O)c1ccc([C@H]2Nc3ccc(S(=O)(=O)Nc4ccc(C)cc4)cc3[C@H]3C=CC[C@H]32)cc1`, for which the survival was inactive: 60%.

Turning to `N#Cc1ccccc1S(=O)(=O)N1CCCC(c2nc3c(nnn3Cc3cccc(Cl)c3)c(=O)[nH]2)C1` (centres undefined), the survival is inactive: 78%.

In the case of `CC(C)CCNC(=O)CN1C(=O)c2cccnc2Oc2ccccc21`, the survival was inactive: 85%.

Consider `CN(C)c1ccc(C(CNC(=O)c2ccccc2F)N2CCc3ccccc32)cc1` (centres undefined), for which the survival was inactive: 105%.

In the case of `Cc1csc2nc(CCNS(=O)(=O)c3ccccc3)cn12`, the survival is inactive: 79%.

As to `O=C(NCc1ccco1)c1c[nH]c2ccc(S(=O)(=O)Nc3ccc(F)cc3F)cc2c1=O`, the survival was inactive: 87%.

With `Cc1nn(-c2ccccc2)c2c1N(CCCC(=O)NCc1ccc(Cl)cc1)C(=O)CS2`, the survival is inactive: 94%.

In the case of `CCCCNc1nc2c(S(=O)(=O)c3ccc(Cl)cc3)nnn2c2ccsc12`, the survival is inactive: 58%.

Regarding `CN1CCN(C(=O)c2cnn(-c3cccc(Cl)c3)c2C2CCN(C(=O)OC(C)(C)C)CC2)CC1`, the survival was inactive: 95%.

As to `COc1cccc(CNC(=O)c2ccc3c(c2)N(Cc2ccc(C(F)(F)F)cc2)C(=O)c2ccccc2S3)c1OC`, the survival was inactive: 108%.

On to `O=C(CSc1ccc(-c2cccs2)nn1)Nc1cccc(F)c1`, for which the survival is inactive: 103%.

Regarding `CCN1CCN(CCCNC(=O)c2ccc3c(c2)sc2nc(-c4ccc(C)cc4)cn23)CC1`, the survival is active: 26%.

`COc1ccc(-c2cc(C)no2)cc1S(=O)(=O)N1CC(C)Oc2ccccc21` (centres undefined): the survival is active: -5%.

As to `Cc1ccc(NC(=O)NC2CCN(C(=O)N3CCOCC3)CC2)cc1`, the survival is inactive: 69%.

Consider `CCCn1c(=O)c2sccc2n2c(CCCC(=O)Nc3ccccc3F)nnc12`, for which the survival was inactive: 89%.

In the case of `CN(C(=O)c1oc(=O)c2ccccc2c1-c1ccccc1)c1cccc(Cl)c1`, the survival was inactive: 46%.

`COc1ccc(-n2c(SCC(=O)NCc3ccccc3)nc3n[nH]c(C)c3c2=N)cc1`: the survival was inactive: 68%.

In the case of `CCOC(=O)Cn1c(=O)n(C2CCCCC2)c2nc(-c3cccc(C)c3)nc(C(N)=O)c21`, the survival is inactive: 97%.

As to `O=C1CC(c2cccc(F)c2)c2c(n3ncnc3[nH]c2=O)N1` (centres undefined), the survival is inactive: 65%.

Consider `COc1cccc(N2CCN(C(=O)Cn3ncc4c(=O)oc5ccccc5c43)CC2)c1`, for which the survival is inactive: 77%.

Consider `CC(C)(C)c1ccc(S(=O)(=O)N2CCN(C(=O)c3cc(-c4ccc(Br)cc4)n[nH]3)CC2)cc1`, for which the survival was inactive: 135%.

With `O=C(CSc1nc(O)c(C/C=C/c2ccccc2)c(=O)[nH]1)Nc1cccc(F)c1`, the survival was inactive: 84%.

Take `CCOc1ccc(NC(=O)c2noc3c2CSc2ccccc2-3)cc1`: the survival was inactive: 70%.

As to `O=C(NCc1ccc(Cl)cc1)C1CCN(S(=O)(=O)c2ccc3c(c2)CCCN3C(=O)C2CCC2)CC1`, the survival is inactive: 90%.

Turning to `COc1cc(-c2noc(-c3ccc(N4CCCCC4)c([N+](=O)[O-])c3)n2)cc(OC)c1OC`, the survival is inactive: 57%.

As for `CCOCCc1nn2c(=O)cc(COC(=O)c3ccco3)nc2s1`, the survival was inactive: 88%.

As for `O=C(Nc1ccc2oc(-c3cc(Br)ccc3Cl)nc2c1)c1ccc2ccccc2c1`, the survival was inactive: 76%.

Take `COc1cccc(CNC(=O)c2nnc(Cc3ccc(Cl)cc3)o2)c1`: the survival is inactive: 91%.

For `Cc1cccc(-c2noc(-c3cc(-c4ccc(F)cc4)n[nH]3)n2)c1`, the survival was inactive: 117%.

As for `COc1cccc(N2CCN(C(=O)Cn3ncc4c5ccccc5n(C)c4c3=O)CC2)c1`, the survival was inactive: 78%.

`O=C(O)c1coc2ccccc12`: the survival is inactive: 76%.

For `Cc1oc2ncn(C)c(=O)c2c1C(=O)NCc1ccccc1`, the survival was inactive: 64%.

Turning to `CCN1CCN(C(=O)c2cccc(F)c2F)CC1`, the survival was inactive: 85%.

Take `COc1cc(OC)cc(C(=O)Nc2nc(-c3nnn(-c4ccc(F)c(Cl)c4)c3C)ns2)c1`: the survival was inactive: 77%.

Turning to `COc1cccc(CN2CCc3nc(N4CCN(C)CC4)ncc3C2)c1`, the survival was inactive: 84%.

In the case of `COc1ccc(-n2nc(C(=O)N3CCN(c4cccc(C(F)(F)F)c4)CC3)c3c4ccccc4n(C)c3c2=O)cc1Cl`, the survival was inactive: 129%.

Take `CCOc1ccc(CCNC(=O)Cc2ccc(NC(=O)N3CCSc4ncccc43)cc2)cc1`: the survival is inactive: 96%.

For `Cc1ccc(NC(=O)Nc2ccc3nc(N4CCN(C)CC4)cc(C)c3c2)cc1C`, the survival was inactive: 101%.

On to `CCCOC(=O)c1ccc(Nc2nc3ccccc3nc2-n2nc(C)cc2C)cc1`, for which the survival is active: 24%.

With `C[C@@H](NC(=O)CN(c1ccccc1)S(=O)(=O)N(C)C)c1ccccc1`, the survival was inactive: 82%.

As for `Cc1cccc(C)c1NC(=O)NC1(C(=O)N2CCCCC2)CCCCC1`, the survival is inactive: 99%.

As for `CCOc1ccc(-c2cc(CCCC(=O)NCCc3ccc(OCC)c(OCC)c3)no2)cc1`, the survival was inactive: 70%.

On to `CCN1CCN(C(=O)c2ccc3c(c2)N(Cc2ccccc2F)C(=O)c2ccccc2S3(=O)=O)CC1`, for which the survival was inactive: 93%.

For the molecule `Cc1ccccc1NC(=O)c1ccc(F)c(S(=O)(=O)NC2CCCC2)c1`, the survival was inactive: 83%.

With `CCCCCCc1nnc(NC(=O)CC)s1`, the survival is inactive: 76%.

In the case of `CCN1C(=O)/C(=c2\s/c(=C3\Sc4ccc(OC)cc4N3C)c(=O)n2Cc2ccccc2)N(C)C1=S`, the survival is inactive: 74%.

With `O=C(CSc1nc(-c2ccco2)nc2cc(=O)[nH]n12)Nc1ccccc1F`, the survival was inactive: 75%.

As to `COc1ccc2cc3cc(C(=O)Nc4ccccc4C)oc3nc2c1`, the survival is inactive: 116%.

On to `COc1ccc(NC(=O)CSc2nc(C)cc(C)c2C(=O)Nc2cccc(C)c2)cc1`, for which the survival was inactive: 92%.

As to `COc1cccc(C(=O)Nc2ccccc2-c2nnc(-c3ccc(C(C)(C)C)cc3)o2)c1`, the survival was inactive: 77%.

For the molecule `Cc1cccc(-n2ncc(C(=O)NCc3ccco3)c2C2CCN(C(=O)OC(C)(C)C)CC2)c1`, the survival is inactive: 81%.

With `Cc1ccc(S(=O)(=O)CCc2nc3ccccc3n2CCC#N)cc1`, the survival is inactive: 105%.

With `Cc1nc2cccnc2n1C1CCN(S(=O)(=O)c2ccc(C(C)C)cc2)CC1`, the survival was inactive: 117%.

As to `CCc1nn(CC(=O)NCCN(CC)CC)c(=O)c2cc3occc3n12`, the survival is inactive: 119%.

Consider `CCn1c(=O)c2cc(C(=O)N(C)c3cc(Cl)c(OC)cc3OC)sc2c2ccccc21`, for which the survival was inactive: 80%.

Regarding `Cc1ccc(N2CCN(C(=O)c3c(C)oc4nc(C)nc(N5CCCC5)c34)CC2)c(C)c1`, the survival is inactive: 102%.

For the molecule `COc1ccc(NC(=O)c2sc3nc4c(cc3c2N)CCCCCC4)cc1Cl`, the survival was inactive: 53%.

With `CCOC(=O)c1cccc(NC(=O)N2CC(CC)Oc3ccccc32)c1` (centres undefined), the survival was inactive: 54%.

Consider `COC(=O)C1(C)NC(c2ccccc2C)C2C(=O)N(C)C(=O)C21` (centres undefined), for which the survival is active: 54%.

Consider `CC(=O)Nc1c(C(=O)Nc2ccccc2F)oc2ccccc12`, for which the survival is inactive: 119%.

`CCc1ccc(Nc2nc3c(S(=O)(=O)c4cccc(Cl)c4)nnn3c3ccsc23)cc1`: the survival is inactive: 43%.

Consider `CC(C)Cc1cc(C(=O)O)nc(=O)[nH]1`, for which the survival was inactive: 105%.

`O=C(Nc1ccccn1)c1ccccc1O`: the survival was inactive: 95%.

In the case of `COC(=O)c1c(NC(=O)c2c(OC)cccc2OC)sc2c1CCCC2`, the survival was active: 13%.

Consider `CC1CCCCN1S(=O)(=O)c1ccc2[nH]c(=O)cc(C(=O)NCCc3ccc(Cl)cc3)c2c1` (centres undefined), for which the survival was inactive: 67%.

For `COc1cc(SC)ccc1C(=O)N1CCCC(C)C1` (centres undefined), the survival was inactive: 76%.

As to `COc1cccc(NC(=O)CC2Oc3ccccc3NC2=O)c1` (centres undefined), the survival was inactive: 83%.

As for `C=Cc1ccc(Cn2c(C(=O)OC)cc3sc(C)cc32)cc1`, the survival was active: 27%.

Regarding `CCc1ccccc1N1C(=O)CC(N2CCc3ccccc32)C1=O` (centres undefined), the survival is inactive: 102%.

With `CC(C)OCCCNC(=O)CN1C(=O)CSc2ccc(S(=O)(=O)N3CCOCC3)cc21`, the survival was inactive: 99%.

In the case of `COc1cccc(NC(=O)c2oc3ccc(S(=O)(=O)N4CCOCC4)cc3c2C)c1`, the survival is inactive: 78%.
